Among the data in the GPR68 mutational scans of Howard et al. (2025) are cAMP reporter score and surface expression score values, retold here.

The labels stand for the following.
B1: GPR68, Q15743 (parent)
chain: MGNITADNSSMSCTIDHTIHQTLAPVVYVTVLVVGFPANCLSLYFGYLQIKARNELGVYLCNLTVADLFYICSLPFWLQYVLQHDNWSHGDLSCQVCGILLYENIYISVGFLCCISVDRYLAVAHPFRFHQFRTLKAAVGVSVVIWAKELLTSIYFLMHEEVIEDENQHRVCFEHYPIQAWQRAINYYRFLVGFLFPICLLLASYQGILRAVRRSHGTQKSRKDQIQRLVLSTVVIFLACFLPYHVLLLVRSVWEASCDFAKGVFNAYHFSLLLTSFNCVADPVLYCFVSETTHRDLARLRGACLAFLTCSRTGRAREAYPLGAPEASGKSGAQGEEPELLTKLHPAFQTPNSPGSGGFPTGRLA

Scores whose standard error is large were omitted. Not listed are two conditions whose scores span a narrow range. Read del as a deletion of the residues named and ins as an insertion between two positions. For some assays here: The concentration of ogerin is not given here.

In data set [1] the parent is B1. Nature of the data set: cAMP reporter score (Enrich2 score, wild type = 0); higher = more signal; HEK293T, FACS bins.
The variants in data set [2] derive from B1. In words: surface expression score (Enrich2 score, wild type = 0); higher = more signal; HEK293T, FACS bins.

As to E174W, the cAMP reporter score in data set [1] (pH 5.5) is -1.31; in data set [1] (pH 6), -1.72; in data set [1] (pH 6, modulator: ogerin) it was -1.66; in data set [1] (pH 6.5, modulator: ogerin), -1.86. For the same variant, the surface expression score in data set [2] was -0.325.
On to E174V, for which the cAMP reporter score is -0.44 in data set [1] (pH 5.5); 0.273 in data set [1] (pH 6); -1.41 in data set [1] (pH 6, modulator: ogerin); -0.67 in data set [1] (pH 6.5, modulator: ogerin). In addition, the surface expression score in data set [2] was determined as 0.034.
Regarding E174A, the cAMP reporter score was -1.52 in data set [1] (pH 5.5) and -0.682 in data set [1] (pH 6, modulator: ogerin). Also, the surface expression score in data set [2] was determined as 1.91.
E174N: the cAMP reporter score in data set [1] (pH 5.5) was -1.12; in data set [1] (pH 6), -0.376; in data set [1] (pH 6, modulator: ogerin) it was -1.55; in data set [1] (pH 6.5, modulator: ogerin) it was -1.79. Also, the surface expression score in data set [2] was -0.942.
On to E174C, for which the cAMP reporter score in data set [1] (pH 5.5) was -1.06; in data set [1] (pH 6), -0.492; in data set [1] (pH 6, modulator: ogerin), -0.437; in data set [1] (pH 6.5, modulator: ogerin), 0.082. For the same variant, the surface expression score in data set [2] stood at 0.856.
On to E174Y, for which the cAMP reporter score in data set [1] (pH 5.5) is -1.64; in data set [1] (pH 6), -1.02; in data set [1] (pH 6, modulator: ogerin), -1.76; in data set [1] (pH 6.5, modulator: ogerin), -1.36. Further, the surface expression score in data set [2] is -0.75.
E174M: the cAMP reporter score in data set [1] (pH 5.5) is -2.21; in data set [1] (pH 6) it was -1.4; in data set [1] (pH 6, modulator: ogerin), -2.07; in data set [1] (pH 6.5, modulator: ogerin), -0.887. For the same variant, in data set [2], the surface expression score is -0.399.
For E174H, the cAMP reporter score in data set [1] (pH 5.5) is -0.482; in data set [1] (pH 6), -0.66; in data set [1] (pH 6.5, modulator: ogerin), -0.078.
Turning to E174L, the cAMP reporter score in data set [1] (pH 5.5) is -1.82; in data set [1] (pH 6), -2.23; in data set [1] (pH 6, modulator: ogerin), -1.17; in data set [1] (pH 6.5, modulator: ogerin), -2.38. Moreover, the surface expression score in data set [2] was -1.42.
Consider E174K, for which the cAMP reporter score in data set [1] (pH 5.5) is -0.387; in data set [1] (pH 6) it was -0.772. For the same variant, the surface expression score in data set [2] turned out to be 1.78.
For E174F, the cAMP reporter score in data set [1] (pH 5.5) was -1.2; in data set [1] (pH 6), -1.4; in data set [1] (pH 6, modulator: ogerin) it was -1.3; in data set [1] (pH 6.5, modulator: ogerin), -1.59. Besides, the surface expression score in data set [2] amounted to 0.389.
In the same order, the values of E174D are -0.418, -1.01, -0.873, -1.37 and 0.443.
In the same order, the values of E174S are -1.83, -0.092, -1.39, -0.335 and 2.25.
On to E174Q, for which the cAMP reporter score in data set [1] (pH 5.5) is -1.77; in data set [1] (pH 6) it was -1.35; in data set [1] (pH 6, modulator: ogerin) it was -1.15; in data set [1] (pH 6.5, modulator: ogerin) it was -1.56. Further, in data set [2], the surface expression score is 1.4.
On to E174G, for which the cAMP reporter score in data set [1] (pH 5.5) was -0.974; in data set [1] (pH 6) it was -0.284; in data set [1] (pH 6, modulator: ogerin) it was -0.592; in data set [1] (pH 6.5, modulator: ogerin), -0.592. Also, the surface expression score in data set [2] is -0.321.
On to E174T, for which the cAMP reporter score in data set [1] (pH 5.5) was -1.27; in data set [1] (pH 6) it was -1.34; in data set [1] (pH 6, modulator: ogerin), -1.47; in data set [1] (pH 6.5, modulator: ogerin) it was -1.25. Also, the surface expression score in data set [2] is 0.137.
V171_C172insG: the cAMP reporter score in data set [1] (pH 5.5) is -0.902; in data set [1] (pH 6) it was -1; in data set [1] (pH 6, modulator: ogerin) it was -1.65; in data set [1] (pH 6.5, modulator: ogerin), -0.837. Moreover, the surface expression score in data set [2] is -0.249.
In the same order, the values of R170del are -1.16, -1.23, -1.61, -1.76 and -0.079.
Taken in the same sequence, the figures for N167Q were 0.169, 1.12, 0.642, -0.59 and 1.22.
Taken in the same sequence, the figures for N167Y were 0.252, -1.65, 0.966, -0.835 and 0.312.
Take N167L: the cAMP reporter score in data set [1] (pH 5.5) was -0.124; in data set [1] (pH 6), -0.761; in data set [1] (pH 6, modulator: ogerin) it was 0.153; in data set [1] (pH 6.5, modulator: ogerin), -0.31. Also, the surface expression score in data set [2] is 0.302.
As to N167M, the cAMP reporter score in data set [1] (pH 5.5) is 0.857; in data set [1] (pH 6), 0.143; in data set [1] (pH 6, modulator: ogerin) it was 0.415; in data set [1] (pH 6.5, modulator: ogerin), 0.479. In addition, in data set [2], the surface expression score was 0.467.
On to N167K, for which the cAMP reporter score was 0.405 in data set [1] (pH 5.5); -0.796 in data set [1] (pH 6); 0.659 in data set [1] (pH 6, modulator: ogerin); -0.304 in data set [1] (pH 6.5, modulator: ogerin). The surface expression score in data set [2] was found to be 0.268.
Turning to N167P, the results for the cAMP reporter score in data set [1] (pH 5.5) and in data set [1] (pH 6) were 0.083 and -1.21, respectively. The surface expression score in data set [2] is 1.1.
For N167I, the cAMP reporter score in data set [1] (pH 5.5) is 0.313; in data set [1] (pH 6), 0.047; in data set [1] (pH 6, modulator: ogerin) it was -0.853; in data set [1] (pH 6.5, modulator: ogerin) it was -0.77. For the same variant, the surface expression score in data set [2] worked out at 1.94.
As for N167C, the cAMP reporter score was 0.428 in data set [1] (pH 5.5); 0.412 in data set [1] (pH 6, modulator: ogerin); -0.141 in data set [1] (pH 6.5, modulator: ogerin).
As for N167D, the cAMP reporter score in data set [1] (pH 5.5) was -0.864; in data set [1] (pH 6), -1.47; in data set [1] (pH 6, modulator: ogerin), -0.924; in data set [1] (pH 6.5, modulator: ogerin), -1.43. Also, the surface expression score in data set [2] is -1.32.
Turning to N167S, the cAMP reporter score in data set [1] (pH 5.5) was 0.958; in data set [1] (pH 6, modulator: ogerin) it was 0.131; in data set [1] (pH 6.5, modulator: ogerin), -1.06. Moreover, in data set [2], the surface expression score stood at 0.946.
With N167H, the cAMP reporter score came to 0.894 in data set [1] (pH 5.5); 3.57 in data set [1] (pH 6); 0.778 in data set [1] (pH 6, modulator: ogerin); 2.93 in data set [1] (pH 6.5, modulator: ogerin). Besides, the surface expression score in data set [2] was found to be 0.08.
In the same order, the values of N167R are -0.654, -0.274, -0.767, -1.47 and -0.327.
In the same order, the values of N167E are -0.897, 0.214, -1.2, -0.305 and -0.53.
In the same order, the values of N167T are 0.328, -0.249, -0.194, -0.743 and 0.644.
